The IC50 comes from the fitted curve, where viability falls to half of the control; a fit beyond the top or the lowest dose is shown as a bound at that dose. The AUC spans the tested range (256-fold, ending at the top dose) of the same fit: 1 means no effect, lower means more sensitive. For some of these results: Any top dose called inferred was calculated from the reported fits. For some of these results: Where an entry number is given, a second screen of the drug exists; the two often differ.
What was measured:
Test in all cases: Viability of human cancer cell lines after 72 h of drug (GDSC screen)
[1] = compound: Cc1ccc(NC(=O)c2cccc(C(C)(C)C#N)c2)cc1Nc1ccc2ncn(C)c(=O)c2c1 [AZ628]; settings: top dose 4 µM; top dose inferred
Method: (§1)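 Human cancer cell lines in 384-well plates, medium with 10% serum, drug for 72 h over a 256-fold dose range (nine 2-fold or five 4-fold steps up to the top dose). Adherent lines were fixed and stained with the nucleic acid dye Syto60, suspension lines read with resazurin; signal relative to control wells, capped at 0 and 100%. One two-parameter sigmoid per drug and line, fitted in a mixed model over all curves with the slope shared within a line.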

[2] = compound: Cn1cnc2c(F)c(Nc3ccc(Br)cc3Cl)c(C(=O)NOCCO)cc21 [AZD6244]; settings: top dose 4 µM; screen: GDSC drug entry 1498; top dose inferred
Method: as §1

[3] = compound: N#CC(c1ccnc(NCCc2cccnc2)n1)c1nc2ccccc2s1 [AS601245]; settings: top dose 8 µM; top dose inferred
Method: as §1

[4] = compound: NC(=O)C1CCCc2c1[nH]c1ccc(Cl)cc21 [EX-527]; settings: top dose 20 µM
Method: as §1

[5] = compound: Nc1ccc(C(=O)Nc2cccc(-c3nc(N4CCOCC4)c4oc5ncccc5c4n3)c2)cn1 [YM201636]; settings: top dose 5.12 µM; top dose inferred
Method: as §1

Cell Line | AUC [1] | IC50 [1] | AUC [2] | IC50 [2] | AUC [3] | IC50 [3] | AUC [4] | IC50 [4] | AUC [5] | IC50 [5]
NB6 (neuroblastoma, adherent) | 0.984 | > 4 µM | 0.939 | > 4 µM | 0.975 | > 8 µM | 0.984 | > 20 µM | 0.899 | > 5.12 µM
NB7 (neuroblastoma, adherent) | 0.94 | > 4 µM | 0.907 | > 4 µM | 0.826 | 5.14 µM | 0.982 | > 20 µM | 0.862 | 4.7 µM
NB10 (neuroblastoma, adherent) | 0.911 | > 4 µM | 0.777 | 1.57 µM | 0.919 | > 8 µM | 0.984 | > 20 µM | 0.923 | > 5.12 µM
NB12 (neuroblastoma, adherent) | 0.97 | > 4 µM | 0.504 | 0.257 µM | 0.96 | > 8 µM | 0.963 | > 20 µM | 0.932 | > 5.12 µM
NB13 (neuroblastoma, adherent) | 0.99 | > 4 µM | 0.979 | > 4 µM | 0.873 | 6.24 µM | 0.99 | > 20 µM | 0.824 | 2.6 µM
NB14 (neuroblastoma, adherent) | 0.618 | 0.517 µM | 0.982 | > 4 µM | 0.894 | > 8 µM | 0.987 | > 20 µM | 0.847 | 3.44 µM
NB(TU)1-10 (neuroblastoma, adherent) | 0.498 | 0.247 µM | 0.993 | > 4 µM | 0.905 | > 8 µM | 0.993 | > 20 µM | 0.84 | 2.86 µM
NB-4 (acute myeloid leukaemia, suspension) | 0.246 | 0.0553 µM | 0.281 | 0.0687 µM | 0.866 | 5.06 µM | 0.984 | > 20 µM | 0.792 | 1.87 µM
NCI-H69 (small cell lung carcinoma, suspension) | 0.969 | > 4 µM | 0.983 | > 4 µM | 0.947 | > 8 µM | 0.983 | > 20 µM | 0.982 | > 5.12 µM
NCI-H82 (small cell lung carcinoma, suspension) | 0.977 | > 4 µM | 0.984 | > 4 µM | 0.986 | > 8 µM | 0.99 | > 20 µM | 0.936 | > 5.12 µM
NCI-H187 (small cell lung carcinoma, suspension) | 0.966 | > 4 µM | 0.984 | > 4 µM | 0.981 | > 8 µM | 0.986 | > 20 µM | 0.938 | > 5.12 µM
NCI-H209 (small cell lung carcinoma, suspension) | 0.97 | > 4 µM | 0.983 | > 4 µM | 0.944 | > 8 µM | 0.977 | > 20 µM | 0.922 | > 5.12 µM
NCI-H211 (small cell lung carcinoma, adherent) | 0.951 | > 4 µM | 0.97 | > 4 µM | 0.883 | > 8 µM | 0.983 | > 20 µM | 0.819 | 2.81 µM
